# Source: publication PMC4336329 (PLoS ONE, 2015)
# Hit rate of the full screen: of about 310,000 compounds, about 14,000 (4.5%) showed an effect of 50% or more. Effects have a minus sign here. The list shows a part of the results.
# Target: human ether-à-go-go-related gene (hERG) potassium channel (human, UniProt Q12809)
# Assay: primary screen, population patch clamp on CHO cells stably expressing hERG
# 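Further: peak tail current of the secondary pulse compared with the same well before compound.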
# Chain of human ether-à-go-go-related gene (hERG) potassium channel (Q12809 whole entry, looked up): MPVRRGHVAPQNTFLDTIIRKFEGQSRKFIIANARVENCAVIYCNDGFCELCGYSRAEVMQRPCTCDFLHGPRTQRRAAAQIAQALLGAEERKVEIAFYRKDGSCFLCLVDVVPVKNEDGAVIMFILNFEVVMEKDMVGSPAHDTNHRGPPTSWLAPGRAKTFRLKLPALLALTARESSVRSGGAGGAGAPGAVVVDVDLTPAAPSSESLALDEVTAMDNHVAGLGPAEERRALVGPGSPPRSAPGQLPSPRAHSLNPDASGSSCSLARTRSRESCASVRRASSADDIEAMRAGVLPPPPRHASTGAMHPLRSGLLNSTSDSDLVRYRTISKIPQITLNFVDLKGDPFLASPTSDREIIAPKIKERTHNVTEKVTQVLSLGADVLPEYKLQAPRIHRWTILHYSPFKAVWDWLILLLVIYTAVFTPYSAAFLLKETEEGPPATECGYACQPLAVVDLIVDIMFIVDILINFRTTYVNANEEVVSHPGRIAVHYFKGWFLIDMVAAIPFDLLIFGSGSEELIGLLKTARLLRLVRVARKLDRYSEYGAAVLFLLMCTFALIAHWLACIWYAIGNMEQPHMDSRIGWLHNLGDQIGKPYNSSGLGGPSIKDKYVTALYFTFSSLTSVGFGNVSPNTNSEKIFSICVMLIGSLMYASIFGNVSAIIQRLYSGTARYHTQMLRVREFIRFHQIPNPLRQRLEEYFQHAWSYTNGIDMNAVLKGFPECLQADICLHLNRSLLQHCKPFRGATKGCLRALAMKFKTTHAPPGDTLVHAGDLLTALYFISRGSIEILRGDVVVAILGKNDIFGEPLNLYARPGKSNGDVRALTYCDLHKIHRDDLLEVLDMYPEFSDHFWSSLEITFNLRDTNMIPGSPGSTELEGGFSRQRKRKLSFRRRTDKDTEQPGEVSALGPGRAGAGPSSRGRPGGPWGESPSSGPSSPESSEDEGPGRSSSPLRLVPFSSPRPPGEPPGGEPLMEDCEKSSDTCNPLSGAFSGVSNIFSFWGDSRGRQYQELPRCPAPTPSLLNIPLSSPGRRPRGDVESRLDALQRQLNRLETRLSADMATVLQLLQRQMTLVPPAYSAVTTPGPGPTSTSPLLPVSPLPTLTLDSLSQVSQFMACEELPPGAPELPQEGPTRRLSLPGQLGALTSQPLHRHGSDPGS
row,Compound,"hERG current change (%, negative = inhibition) at 10uM [%]"
1,CC(C)N(c1ccccc1)c1ncnc(NCCC(=O)O)c1[N+](=O)[O-],6.51
2,COc1cc(S(=O)(=O)Nc2ccc(C)cc2)ccc1N=Cc1c(C)[nH]n(-c2ccccc2)c1=O,5.71
3,CCC(=O)Nc1cnc(NC(=O)c2cccc(F)c2)cc1C,-29.8
4,O=C1CCC([N+](=O)[O-])C(c2cccc3ccccc23)N1 (stereo not drawn),12.6
5,COC(=O)c1ccccc1NC(=O)CCCN1C(=O)C(c2ccccc2)Oc2cccnc21 (stereo not drawn),27.3
6,O=C(C[n+]1cc2ccccc2c2ccccc21)c1ccccc1.[Br-],-73.8
7,CCCc1ccc(OCC(O)CN2CCN(C(=O)OCC)CC2)cc1.Cl (stereo not drawn),-52.2
8,CC(=O)N1N=C(C)CC1c1ccc(OCc2ccccc2)cc1 (stereo not drawn),-15.5
9,Cc1ccc(Cn2cnc3ccccc32)cc1C,-12.1
10,O=C(Nc1cccc(NC(=O)C2CC3CCCC(C2)C3=O)n1)C1CC2CCCC(C1)C2=O (stereo not drawn),6.6
11,Oc1c(C=NCc2ccncc2)sc2ccccc12,-38.4
12,Cc1cccc(OCCNC(=O)c2ncn[nH]2)c1,-23.3
13,CCCCn1c(N)c(N(CCOC)C(=O)CSc2nnc(-c3ccncc3)n2CCC)c(=O)[nH]c1=O,6.82
14,O=C1CCCc2nc(NCc3ccco3)ncc21,27.5
15,NC(=O)Nc1ccc2c(c1)OCCO2,-3.54
16,CCOC(=O)c1c(NC(=S)NC(=O)/C=C/c2cccs2)sc(C)c1C,12.8
17,COc1ccc(N2CCN(C(c3cccs3)C(C)NC(=O)C(=O)N3CCCCC3)CC2)cc1 (stereo not drawn),-2.74
18,Cn1nc(C(F)(F)F)c(-c2cccc(C(F)(F)F)c2)c1NC(=O)c1cccnc1,-6.76
19,O=C1NC(Cc2ccccc2)c2nc3ccc(Cl)cc3c(=O)n2-c2cc(Cl)ccc21 (stereo not drawn),16.1
20,Cc1cc([N+](=O)[O-])c(C(C)(C)C)cc1N,5.18
21,COc1ccc(C2=CC(=O)C[C@H](c3ccc(Cl)cc3)C2)cc1,-1.31
22,CC1CC(C)CN(C(=O)CCCn2c(=S)[nH]c3ccccc3c2=O)C1 (stereo not drawn),-3.01

row,Compound,"hERG current change (%, negative = inhibition) at 10uM [%]"
1,CC1(C)C(C=C(Cl)Cl)C1C(=O)OCc1cccc(Oc2ccccc2)c1 (stereo not drawn),9.71
2,Cc1ccc(N(C)S(=O)(=O)c2cccc(C(=O)NNC(=O)c3ccncc3)c2)cc1,-6.47
3,O=C(CN1C(=O)NC2(CCc3ccccc32)C1=O)c1c[nH]c2ccccc12 (stereo not drawn),4.53
4,O=C(COC(=O)c1cccc(Br)c1)NCCc1ccccc1,1.78
5,CCOC(=O)N1CCN(S(=O)(=O)c2ccc3c(c2)CCN3C(=O)CC)CC1,1.55
6,CN1/C(=C\C(=O)c2ccccc2Cl)c2ccccc2CC1(C)C,-17.5
7,O=C(CSC1CCCCC1)Nc1ccccc1Br,6.12
8,CC(CNC(=O)C(C)(C)C)NC(=O)C(C)(C)C (stereo not drawn),-2.59
9,O=C(C1CCCN1S(=O)(=O)c1cccc2cccnc12)N1CCc2ccccc2C1 (stereo not drawn),-57.5
10,N#Cc1cc2c(=O)n3ccccc3nc2n(-c2ccc(Cl)cc2)c1=O,5.19
11,O=C(NCc1ccccc1)c1ccc(S(=O)(=O)N2CCCc3ccccc32)cc1,21.5
12,CCOCCCNC(=O)CSc1nc2nc(C)c(Cc3ccccc3)c(C)n2n1,3
13,Cc1ccc(NC(=O)CN2C(=O)S/C(=C\c3ccc(C(=O)O)cc3)C2=O)cc1,25
14,O=C(CSc1nnc2ccccn12)c1ccc2c(c1)OCCO2,5.44
15,O=C(c1ccc2nc(Cc3cccc(Cl)c3)oc2c1)N1CCOCC1,-16.6
16,COCCOC(=O)N/C=C\c1nc2ccccc2c(=O)[nH]1,-0.645
17,COc1ccc(/C=N/OCC(=O)OCC(=O)N(C)c2ccccc2)cc1,7.9
18,O=C(CSc1nnc(NC(=O)c2c(F)cccc2F)s1)NC1CC1,21.9
19,COc1ccc2nc(N3CCN(C(=O)c4ccc5ncsc5c4)CC3)sc2c1,14.1
20,CCC(C)(C)n1nnnc1C(c1cc2ccc(C)cc2[nH]c1=O)N(Cc1cccnc1)Cc1ccco1 (stereo not drawn),-60.6
21,CCCN(CCC)C(=O)CCS(=O)(=O)c1cccc2nsnc12,-24.4
22,COC(=O)c1ccc(NC(=O)N2CCOCC2)cc1,16.5

row,Compound,"hERG current change (%, negative = inhibition) at 10uM [%]"
1,CCOC(=O)N1CCN(S(=O)(=O)c2ccc(C(=O)Nc3nc4ccccc4s3)cc2)CC1,-9.18
2,O=C(c1cccs1)N1CCN(Cc2nc3ccccc3c(=O)[nH]2)CC1,-33
3,CCn1c(Cc2ccccc2)nnc1SCC(=O)Nc1ccc(OC)cc1,0.256
4,COc1cc(C(=O)OCC(=O)NC(=O)NC2CCCCC2)cc(Cl)c1OC,-20.2
5,O=C(CSc1nc2ccccc2c(=O)[nH]1)Nc1ccccc1O,-12.3
6,Cn1nnnc1SCc1ccc(F)cc1,9.36
7,O=C(NCc1ccco1)c1ccc(-c2cccc(Cl)c2)o1,4.25
8,CCOC(=O)c1ccc(NC(=O)Cn2nnc(-c3ccc(F)cc3)n2)cc1,3.38
9,COc1cccc(CNC(=O)C2CCCN(S(=O)(=O)N3CC(C)CC(C)C3)C2)c1 (stereo not drawn),3.89
10,CNC(=S)Nc1ccc(C23CC4CC(CC(C4)C2)C3)cc1,7.93
11,COc1cc(NC(=O)CCc2nnc3ccc(N4CCC(C)CC4)nn23)cc(OC)c1,12.8
12,CC(C)Cn1c(CN2CCN(c3ccccc3F)CC2)nc2c1c(=O)[nH]c(=O)n2C,-10.8
13,O=C(CCC(=O)c1ccc(Oc2ccccc2)cc1)Nc1cccc(Cl)c1,4.54
14,COc1ccc(-n2nnc3c(=O)n(CC(=O)N4CCCC4)cnc32)cc1,-6.02
15,COc1cc(C[C@@H]2C(=O)OC[C@H]2Cc2ccc(OC)c(OC)c2)ccc1O,13.9
16,CSc1nc(C)c(CCOCc2ccc(F)cc2)c(=O)[nH]1,-1.27
17,Cc1ccc2nc(-c3ccc(NS(=O)(=O)c4ccc(F)cc4)cc3)sc2c1,8.01
18,CC1CC(C)CN(C(=O)COC(=O)c2ccc([N+](=O)[O-])o2)C1 (stereo not drawn),-4.31
19,OCCCNc1ncnc2c1cnn2-c1ccc(Cl)cc1,16.9
20,N#CCCNS(=O)(=O)c1ccc(C(=O)OCC2CCCCC2)cc1,19.7
21,O=C(NCCC(=O)N1CCN(S(=O)(=O)c2ccccc2)CC1)c1ccc(Br)cc1,-2.38
22,CCN1CCCC1CNC(=O)CN(C)S(=O)(=O)c1ccc(Cl)cc1 (stereo not drawn),-21.6

row,Compound,"hERG current change (%, negative = inhibition) at 10uM [%]"
1,CCCCN(CCCC)C(=O)C1(P(=O)(c2ccccc2)c2ccccc2)CCC1,-33.5
2,Cc1ccc(OCC(=O)Oc2ccc(C(C)C)cc2)cc1,9.25
3,Cc1ccc2nc(SCC(=O)Nc3cccc(S(=O)(=O)N(C)C)c3)[nH]c2c1,2.91
4,C=CCNC(=S)NNC(=O)c1ccncc1,1.85
5,CSc1nnc(NC(=O)c2nc(S(=O)(=O)Cc3ccc(C)cc3)ncc2Cl)s1,-19
6,Cc1ccc(NS(=O)(=O)c2cc([N+](=O)[O-])ccc2NNC(=S)Nc2cc(C)ccc2C)c(C)c1,-0.00412
7,CC12CN(C(=O)c3ccccc3Br)CC(C)(CN(C(=O)c3ccccc3Br)C1)C2=O,-4.96
8,Cc1cc(C)c2cc(CN(Cc3cccnc3)C(=O)c3ccc(F)cc3)c(Cl)nc2c1,-64.7
9,Cc1ccc(C)c(Nc2nc3ccc(C)cc3n3cnnc23)c1,24.4
10,Cc1cc(Cl)ccc1OCC(=O)OC(C)C(=O)N(C)C (stereo not drawn),6.34
11,COCCOC(=O)C1=C(C)NC(C)=C(C(=O)OCCOC)C1/C=C/c1ccccc1OC,0.555
12,CC(=O)N1CCN(C(=O)c2ccc(Oc3ccccc3)cc2)CC1,19.1
13,COc1ccc(OCC(=O)Nc2cc3oc4ccccc4c3cc2OC)cc1,33.7
14,O=C(Nc1ccc2c(c1)OCCO2)c1cc2ccccc2o1,-6.6
15,Cc1ccccc1CS(=O)(=O)CCC(=O)NCc1ccccn1,16.8
16,CC1CC(C)CN(CCOc2cccc(Cl)c2Cl)C1.O=C(O)C(=O)O (stereo not drawn),-35.9
17,CCOC(=O)C1=C(N)Oc2cc(O)ccc2C1c1cccc([N+](=O)[O-])c1 (stereo not drawn),-11.3
18,Cc1nn(-c2ccccc2)c(C)c1C(=O)NCc1ccc(S(N)(=O)=O)cc1,20.1
19,COCCCNC(=S)N1CCN(c2ccc([N+](=O)[O-])cc2)CC1,-68
20,CCN1CCN(C/C(C)=C/c2ccccc2)CC1,4.72
21,CCN(Cc1ccccc1)C(=O)C(C)OC(=O)c1cc(S(=O)(=O)Nc2c(C)n(C)n(-c3ccccc3)c2=O)ccc1C (stereo not drawn),-19.3
